Source: PubChem BioAssay AID1508624 (National Center for Advancing Translational Sciences (NCATS), 2021)
About 120 (0.25%) of roughly 48,000 compounds were called active. Another 4% or so got no clear call; they are omitted. Calls follow the shape of the dose curve; as a rule, active = well fitted activation curve with a large enough effect; inconclusive = small, poorly fitted or top-dose-only effect, or another doubt; inactive = no such curve, though single readings can be large or run the other way. The list shows a part of the results.

test: Primary qHTS for Identification of Small Molecule Activators of Huntingtin-Antisense Promoter Activity; settings: HEK293 HTT-AS promoter firefly luciferase reporter, 24 h; series mostly up to 57.5 µM; activity change, positive = activation: at the top concentration; also: nearly all actives have a fitted effect of over 55% in size
Outline: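 HEK293 Fluc reporter, 2,500 cells/well, 24 h pre-culture; cpds up to 57.5 uM final, 24 h 37 degrees C; Dual-Glo, 10 min RT; normalized vehicle = 0%, zero RLU = -100%.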

Activity change, positive = activation, inactive:
O=C(NCCc1ccccc1)c1ccc(Cn2c(SCc3ccc(F)cc3)nc3cccnc32)cc1 3.61%
O=C(NCc1cccc(Cl)c1)c1cccn1-c1nnc(N2CCCC2)s1 -5.02%
Cc1ccccc1Nc1c(-c2ccsc2)nc2c(C)cccn12 -8.57%
COc1ccc(OC)c(S(=O)(=O)N2Cc3ccccc3CC2C(=O)Nc2ccc(C(C)=O)cc2)c1 (centres undefined) -20.7%
Cc1cccc(C2N3CC4(C(C)C)CN2CC(C(C)C)(C3)C4=O)c1 (centres undefined) -9.1%
Cc1ccc(-n2ncc(C(=O)NCc3cccs3)c2C2CCN(C(=O)OC(C)(C)C)CC2)cc1C -39.3%
CCC(Cn1nnc2ccccc2c1=O)NC(=O)Nc1cc(Cl)ccc1OC (centres undefined) -19.8%
Cc1cccc(Cn2c(CNS(=O)(=O)c3ccc(Cl)s3)nc3cccnc32)c1 -22%
CCOc1ccc(-c2cc3c(=O)n(CC(=O)Nc4c(C)cccc4C)ccn3n2)cc1 4.38%
Cc1ccc2[nH]c(CSc3nnc(NC(=O)COc4ccccc4F)s3)cc(=O)c2c1 -34.6%
Cn1c(=O)oc2cc(S(=O)(=O)NCCC(=O)Nc3ccc(F)c(Cl)c3)ccc21 -13.1%
CC(C)CN(CCNC(=O)c1cc(=O)[nH]c2ccc(S(=O)(=O)N3CCCCCC3)cc12)CC(C)C -12%
Cc1ccc(Cl)cc1NC(=O)/C(C#N)=C/c1c(C)n(Cc2ccccc2)c2ccccc12 4.79% [at 11.5 µM, percent change from vehicle, -100% = no light]
Fc1ccc(-c2csc(-c3nc(-c4ccc(Br)s4)cs3)n2)cc1 -6.23%
CCOc1ccc(NC(=O)CCCN2C(=O)C(c3ccccc3)Oc3cccnc32)cc1 (centres undefined) -16.9%
CS(=O)(=O)c1ncc(N(Cc2ccccc2)Cc2ccco2)c(C(=O)Nc2cccc(C(F)(F)F)c2)n1 -19%
CCOC(=O)c1c(NC(=O)c2cc(-c3ccccc3)on2)sc2c1CCCC2 19.6%
CC(C)Cn1c(=O)c2sccc2n2c(CCCC(=O)Nc3ccc(Cl)cc3)nnc12 -15.9%
Cc1cc(C)c(NC(=O)CSc2nc(=O)n(Cc3ccco3)c3c2CCC3)c(C)c1 -23.2%
O=C(NCCc1ccc(Cl)cc1)c1ccc2nc(Cc3ccccc3)oc2c1 -18.1%
COc1cccc(-c2nc(SCc3cc(=O)c4cc(Cl)ccc4[nH]3)n[nH]2)c1 -18.9%
COc1ccc2c(Sc3ccccc3)c(C(=O)NCCN(C)C)[nH]c2c1 -23.5%
Cc1cc2c(cc1S(=O)(=O)Nc1cccc(C(F)(F)F)c1)OCCN2C -25.5%
CCOc1ccc(-c2nonc2NC(=O)c2ccccc2C)cc1 -26.4%
CC(C)Oc1ccc(CNC(=O)Cc2ccc(NC(=O)N3CCSc4ncccc43)cc2)cc1 -18.9%
Cc1ccc2c(c1)c(=O)c(S(=O)(=O)c1ccc(F)cc1)cn2CC(=O)Nc1ccc2c(c1)OCO2 -11.9%
Cc1ccc(Cl)cc1NC(=O)NC1COc2ccccc2C1 (centres undefined) -14.7%
O=C(Cc1ccc(Cl)cc1)Nc1ccc2oc(-c3ccccc3)nc2c1 21.5%
CCN(CC)C(=O)c1sc2c(c1C)c(=O)n(-c1ccc(C)c(C)c1)c(=O)n2CC(=O)Nc1ccc(F)cc1 -24.7%
CC(C)(C)C1CCc2c(sc(NC(=O)c3ccccc3F)c2C(=O)N2CCCCC2)C1 (centres undefined) -24.2%
CCOc1cc(C#N)c(NC(=O)c2ccc(OC)c(S(=O)(=O)N3CCCC3)c2)cc1OCC -7.96%
O=S(=O)(c1ccccc1)c1nc(-c2ccc(F)cc2)oc1N1CCOCC1 7.03%
O=C(c1nc(-c2ccc(Cl)cc2)n2c1CCCCC2)N1CCN(c2ccc(F)cc2)CC1 -25.9%
CCCOc1ccc(OC(=O)c2sc3ncn(Cc4cccc(F)c4)c(=O)c3c2C)cc1 -3.79%
COc1ccccc1NC(=O)N(Cc1ccco1)C1CCN(C(C)=O)CC1 -12%
Cc1ccc(NC(=O)c2ccc3nc(Cc4ccccc4)oc3c2)cc1F -14.1%
CCCCN(C)CCNC(=O)Cn1ncc2c3ccccc3n(CCC)c2c1=O -21.5%
Cc1cccc(-c2noc(CN(C(=O)c3ccc(C)c(C)c3)C(C)C)n2)c1 -27.5%
COc1ccc(C)cc1N(C)C(=O)c1sc2nc3n(c(=O)c2c1C)CCCCC3 0.213%
Cc1csc2nc(-c3cccc(NC(=O)c4cccc(F)c4)c3)cn12 -6.17%
O=C(CS(=O)Cc1ccco1)NC/C=C\COc1cc(CN2CCCCC2)ccn1 (centres undefined) 1.93%
CCCCCn1c(=O)[nH]c2cc(C(=O)NCc3ccc(C)cc3)ccc2c1=O -8.38%
CCOc1ccc(CCNC(=O)C2=C(C)C(=O)OC23CCC(C)CC3)cc1OCC (centres undefined) -2.97%
COc1cccc(NC(=O)CSc2nc(-c3ccccc3)nc3c2Cc2cc(Cl)ccc2O3)c1 -5.37%
Cc1ccc(C(=O)c2oc3ccccc3c2NC(=O)c2nc(S(C)(=O)=O)ncc2Cl)cc1F 6.58%
Cc1ccc(C)c(NC(=O)c2cc(S(=O)(=O)NCCC3=CCCCC3)ccc2F)c1 -27.7%
COc1ccc2c(c1)CCc1c(C(=O)Nc3c(C)nn(Cc4ccc(C)cc4)c3C)noc1-2 -46.9%
COc1ccc(CNC(=O)C(C(C)C)N2Cc3ccccc3C2=O)cc1 (centres undefined) -11.6%
CCCN(CCC)C(=O)C1CCN(c2ncnc3c2nc2n3CCCCC2)CC1 -2.63%
CCOc1ccc(CCNC(=O)CN(c2ccc(C)cc2)S(=O)(=O)N(C)C)cc1OCC -17.6%
O=c1c(S(=O)(=O)c2ccccc2)cn(Cc2ccc(F)cc2)c2cc(N3CCCCC3)c(F)cc12 -11.2%
CC1Cn2cc(C(=O)Nc3cccc(C(F)(F)F)c3)c(=O)c3c(Cl)ccc(c32)O1 (centres undefined) -4.48%
COC(=O)c1nnn(CC(=O)Nc2ccc(Br)c(C)c2)c1N 23.8%
Cc1ccc(-c2onc(C)c2C)cc1S(=O)(=O)NC1CCCCC1 -46.5%
C[C@H]1C[C@@H]2[C@H]([C@@H](O)C[C@@]3(C)[C@H]2CC[C@]3(O)C(=O)CO)[C@@]2(C)C=CC(=O)C=C12 -4.02%
Cc1ccc(-n2c(=O)c3c(c4cc(C)ccc4n3C)n(CC(=O)Nc3cc(C)cc(C)c3)c2=O)cc1 -1.31%
COc1ccc(NC(=O)c2ccc(COc3ccccc3OC)o2)cc1OC 16%
CCn1cc(C(=O)NCc2ccccc2)c(=O)c2cc(S(=O)(=O)N3CCCCCC3)ccc21 -15.9%
COc1cccc(CNC(=O)CCC(=O)N2Cc3cccc(OC)c3Oc3ncccc32)c1OC -24.2%
CCCNC(=O)CCc1c(C)nc2nc(-c3cc(OC)cc(OC)c3)nn2c1C -22.6%
Cc1ccc(OCc2nc3ccccc3n2Cc2ccccc2Cl)cc1 -16.3%
O=C(Cc1ccccc1)Nc1c(C(=O)Nc2ccccc2F)oc2ccccc12 -2.03%
CCc1ccc(-c2[nH]c3c(c2-c2sc(C)c(C(=O)OC)c2O)c(=O)n(C)c(=O)n3C)cc1 -3.05%
Cc1cccc(-n2nnnc2S(C)(=O)=O)c1 -95.1%
COc1ccc(N(C)C(=O)CCS(=O)(=O)c2cccc3nsnc23)cc1 -13.5%
COc1cccc2sc(N(Cc3cccnc3)C(=O)C3COc4ccccc4O3)nc12 (centres undefined) -13.5%
COc1cccc2c1C(=O)c1c(O)c3c(c(O)c1C2=O)C[C@@](O)(C(=O)CO)C[C@H]3O[C@H]1C[C@H](N)[C@H](O)[C@H](C)O1 -48.3%
Cc1c(NC(=O)c2ccccc2F)cccc1-c1nc2cccnc2s1 -2.71%
O=C(Cn1ncc2c(=O)oc3ccccc3c21)NCc1ccc(Cl)cc1 -6.76%
CC(=O)N1CCCc2cc(S(=O)(=O)N(C)CC(=O)Nc3ccc(Cl)cc3C)ccc21 -21.5%
NC(=O)C1(N2CCCCC2)CCN(CCCN2c3ccccc3CCc3ccc(Cl)cc32)CC1 -37.8%
CCC(=O)N1CCc2cc(Br)cc(S(=O)(=O)NCCc3ccccc3)c21 -28.3%
CCCCC/C=C\C/C=C\CCCCCCCC(=O)NC(C)c1ccccc1 (centres undefined) -18.4%
O=C(NCCCN1CCN(c2ccccc2F)CC1)c1nnc(Cc2ccc(Cl)cc2Cl)o1 -23.5%
CCOC(=O)c1c(NC(=O)COc2ccc(F)cc2)sc2c1CCC(C)C2 (centres undefined) 8.41%
CC(C)(C)C(=O)Nc1cccc(C(=O)OCc2cc(=O)n3nc(C4CCCCC4)sc3n2)c1 -3.14%
O=C(CSc1nc2ccccc2n1Cc1ccccc1Cl)NCc1ccccc1 -25.8%
CCOC(=O)c1[nH]cnc1C(=O)Nc1ccc(F)cc1 -9.95%
CCCCN(C)CCNC(=O)c1nn(-c2ccc(OC)cc2)c(=O)c2c1c1ccccc1n2C 3.9%
COc1cccc(CNC(=O)CCNS(=O)(=O)c2ccc3c(c2)oc(=O)n3C)c1 -3.72%
Cc1cc(C)c(Cn2c(C(O)c3ccccc3)nc3ccccc32)c(C)c1 (centres undefined) -25.2%
CCN1CCN(CCCNC(=O)c2ccc3c(c2)sc2nc(-c4ccc(OC)cc4)cn23)CC1 -13%
CCOC(=O)c1c(-c2ccc(OC)cc2)oc2ccc(OCc3ccc(C(=O)OC)cc3)cc12 -19.3%
CCNc1c(NC(=O)c2cc(OCC)c(OCC)c(OCC)c2)c(=O)oc2ccccc12 -18.2%
CC(NC(=O)C(=O)Nc1c2c(nn1-c1ccc(F)cc1)CSC2)c1ccccc1 (centres undefined) -16%
COc1cccc(CNC(=O)CCn2cccn2)c1 -0.486%
CCOC(=O)CSc1nc2ccc(NC(=O)c3ccccc3)cc2s1 -6.61%
Cc1ccc(C)c(N2CCN(Cc3nnc(-c4ccccc4)o3)CC2)c1 3.72%
COc1cccc(C(=O)c2cn(CC(=O)Nc3cccc(C)c3C)c3nc(C)ccc3c2=O)c1 -13%
CCOCCCn1c(SCC(=O)Nc2ccc(OC)cc2OC)nc2ccccc2c1=O -12%
CCc1ccc(C(=O)Nc2ccc3nn(-c4ccc(C)c(Cl)c4)nc3c2)cc1 4.67%
Cc1cccc(C)c1NC(=O)Cn1nc(C)c2sc3ccccc3c2c1=O -5.18%
Cc1ccc(CN2CCc3nc(SCC(=O)Nc4cccc(C)c4C)[nH]c(=O)c3C2)cc1 0.0664%
CCN(Cc1ccccc1)C(=O)CN1C(=O)COc2ccc(S(=O)(=O)N3CCCCCC3)cc21 -24.6%
